Data taken from IntAct's records for PubMed 17258210.

B1: Myeloid differentiation primary response protein MyD88 (Homo sapiens), Q99836 (parent)
chain: MAAGGPGAGSAAPVSSTSSLPLAALNMRVRRRLSLFLNVRTQVAADWTALAEEMDFEYLEIRQLETQADPTGRLLDAWQGRPGASVGRLLELLTKLGRDDVLLELGPSIEEDCQKYILKQQQEEAEKPLQVAAVDSSVPRTAELAGITTLDDPLGHMPERFDAFICYCPSDIQFVQEMIRQLEQTNYRLKLCVSDRDVLPGTCVWSIASELIEKRCRRMVVVVSDDYLQSKECDFQTKFALSLSPGAHQKRLIPIKYKAMKKEFPSILRFITVCDYTNPCTKSWFWTRLAKALSLP
B2: Toll/interleukin-1 receptor domain-containing adapter protein (Homo sapiens), P58753 (parent)
chain: MASSTSLPAPGSRPKKPLGKMADWFRQTLLKKPKKRPNSPESTSSDASQPTSQDSPLPPSLSSVTSPSLPPTHASDSGSSRWSKDYDVCVCHSEEDLVAAQDLVSYLEGSTASLRCFLQLRDATPGGAIVSELCQALSSSHCRVLLITPGFLQDPWCKYQMLQALTEAPGAEGCTIPLLSGLSRAAYPPELRFMYYVDGRGPDGGFRQVKEAVMRYLQTLS

Variants of: B1
Conditions: with tirap_human TIRAP, P58753

Variant	effect of a mutation on the interaction
P200H	decreasing interaction strength

Variants of: B2
Conditions: with myd88_human MYD88, Q99836

Variant	effect of a mutation on the interaction
P125H	decreasing interaction strength
